# About 800 (1.6%) of roughly 50,000 compounds showed an effect of 50% or more. The list shows a part of the results.
# Target: Bcl-2-like protein 10 (Homo sapiens) (UniProt Q9HD36)
# Test: Phenotype converters, Bcl-B/TR3 peptide binding displacement, primary biochemical FP (AID 1240);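 also: 0% = Bcl-B with tracer peptide and DMSO and 100% = tracer peptide lacking Bcl-B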
# Details: GST-Bcl-B / FITC-TR3 peptide fluorescence polarization; stronger effect = higher value; compound at 3.75 mg/L
# Sequence of UniProt Q9HD36 (Q9HD36 whole entry, looked up): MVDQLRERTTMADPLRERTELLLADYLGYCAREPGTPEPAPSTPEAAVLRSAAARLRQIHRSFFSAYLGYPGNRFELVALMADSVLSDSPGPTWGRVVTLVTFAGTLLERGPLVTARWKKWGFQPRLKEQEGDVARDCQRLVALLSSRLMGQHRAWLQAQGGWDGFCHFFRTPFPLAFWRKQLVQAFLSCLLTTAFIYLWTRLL
row,Structure (SMILES),displacement [%]
1,CC(=O)N(CC(C)(C)CC=C(C)C)C1CCCCC1,-39.9
2,Cc1nn(-c2ccccc2)c(C)c1CC(=O)N(c1ccccc1)c1ccccc1,17.9
3,CC(C)(C)/C(O)=C/c1nc2cc([N+](=O)[O-])ccc2[nH]c1=O,0.3
4,COc1ccc(C(=O)N/C(=C\c2ccc(-c3cccc([N+](=O)[O-])c3)o2)C(=O)NCc2ccco2)cc1,9.9
5,COc1ccc(C)cc1NC(=O)c1cc(C(=O)Nc2cc(C)ccc2OC)n(C)n1,7.3
6,O=C(c1c(Cl)cccc1Cl)N1CCN(c2ccc([N+](=O)[O-])cc2)CC1,16.3
7,COc1ccc(C2CC(C(F)(F)F)n3ncc(C(=O)Nc4ccccc4SC)c3N2)cc1 (stereo not given),2.7
8,COc1ccc(C(NC(=O)c2ccco2)c2ccc(OC)c(OC)c2)cc1 (stereo not given),-2.3
9,CCOc1ccc2sc(C=NCCc3ccccc3)c(O)c2c1,13.2
10,COc1nc(Nc2ccc(Cl)c(Cl)c2)nc(N(C)C)n1,-7.7
11,CCOc1ccccc1OCC(=O)NN,9.5
12,O=[N+]([O-])c1ccc(Cl)c(-c2nnc(-c3ccc(Br)o3)o2)c1,0
13,O=C(O)c1cc(NS(=O)(=O)c2ccc3c(c2)OCCO3)cc(C(=O)O)c1,-3.6
14,O=C(Nc1ccc(-c2nc3ccccc3[nH]2)cc1)c1cc2ccccc2o1,-14.2
15,COc1ccc(OC)c(-n2c(O)c(C=Nc3cccc(C)c3)c(=O)[nH]c2=O)c1,-2.6
16,N/C(=N\OC(=O)C(c1ccccc1)c1ccccc1)c1ccncc1,3.5
17,Cc1ccc(NC(=O)c2ccc(OCC(C)C)cc2)c(C)c1,5
18,COc1ccc(-n2c(O)c(C=Nc3cccc(Cl)c3)c(=O)[nH]c2=O)cc1,14.2
19,CCOc1ccc(NC2=C(Cl)C(=O)N(c3ccc(Br)cc3)C2=O)cc1,-4.8
20,C=CCCCC(=O)Nc1ccc(-c2ccc(NC(=O)CCCC=C)cc2)cc1,12.1
21,CC(C)Oc1ccccc1NC(=O)CSc1nc2ccccc2n1C,8.4
22,COc1ccc(C(=O)NCC2(c3ccc(OC)c(OC)c3)CCCC2)cc1,-17.4
23,CCOC(=O)CCc1c(C)nc2cc(-c3cccc(F)c3)[nH]n2c1=O,8.7
24,COc1cc(/C=N/Nc2ncc(C)c(=O)[nH]2)cc(OC)c1O,6.6
25,O=C(NCc1ccncc1)c1ccc(Cl)cc1,-3.5
26,COc1cc(/C=c2\sc3nc4ccccc4n3c2=O)ccc1OC(=O)c1ccc(F)cc1,13.5
27,CC(C)CNC(=O)CN(c1ccc(F)cc1)S(=O)(=O)c1ccccc1,0

row,Structure (SMILES),displacement [%]
1,O=C(Nc1ccc(I)cc1Cl)c1ccc(Cl)c(Cl)c1,-6.3
2,O=C(NCCN1CCNCC1)C(=O)Nc1ccc(F)cc1,12.1
3,O=c1oc2c(F)c(F)c(F)c(F)c2c2[nH]ncc12,3.4
4,O=C(/C=C/c1ccc(Cl)cc1)Nc1cccnc1,7.2
5,CC1CCN(c2ccc(/C=N/N=C3\NC(=O)CS3)cc2[N+](=O)[O-])CC1,7
6,CN1/C(=C\C=N\Nc2ccc([N+](=O)[O-])cc2)C(C)(C)c2ccccc21,-4.6
7,Cc1cccc(C(=O)Nc2sc3c(c2C(=O)N2CCN(C)CC2)CCCC3)c1,13.3
8,CC(C)c1ccc(CNC(=O)CSc2nc3ccccc3o2)cc1,1.8
9,Cc1ccc(CNS(=O)(=O)c2ccccc2[N+](=O)[O-])cc1,5.2
10,COc1ccc(NC(=O)c2ccc(CN3CCc4ccccc4C3)cc2)c(OC)c1,10.5
11,CCOC(=O)Cn1nc(-c2ccccc2)c2ccccc2c1=O,0.3
12,O=C1C2C3C=CC(C3)C2C(=O)N1c1ccc(-c2ccnc(-c3ccc(N4C(=O)C5C6C=CC(C6)C5C4=O)cc3)n2)cc1 (stereo not given),4.4
13,COc1cc(Cl)cc(/C=N/NC(=O)/C(=C\c2ccc3c(c2)OCO3)NC(=O)c2ccccc2)c1O,6.1
14,Nc1ccc2nc(SCC(=O)Nc3ccc4nc(SCC(=O)NC5CC5)sc4c3)sc2c1,-1
15,C#CCOc1ccc(/C=C2\C(=O)NC(=O)N(c3cc(C)cc(C)c3)C2=O)cc1OC,-12.3
16,CCn1c2ccccc2c2cc(NC(=O)Cc3ccc(OC)c(OC)c3)ccc21,-5.2
17,CCCc1nc2ccccc2n1C(=O)/C=C\C(=O)O,-0.6
18,COc1ccc(NC(=O)c2cc3cc(OC)ccc3oc2=O)cc1,7.5
19,CCOc1ccc(NC(=S)NC(NC(=O)CC(C)C)C(Cl)(Cl)Cl)cc1 (stereo not given),7.1
20,CC1(C(=O)n2nnc3ccccc32)CC2C=CC1C2 (stereo not given),5.2
21,O=[N+]([O-])c1cc(-n2ncnc2-c2ccc(Cl)cc2)ccc1F,-7.7
22,O=C1NC(=Nc2ccc(Br)cc2)S/C1=C\c1ccc([N+](=O)[O-])cc1,0.3
23,COc1cccc(NC(=O)COc2ccc(Br)cc2C(C)(C)C)c1,3.9
24,CCOc1cc(/C=C2\C(=O)NC(=S)N(c3cccc(Br)c3)C2=O)ccc1O,3.4
25,CCCOc1ccc(N2C(=O)CC(N3CCC(C(N)=O)CC3)C2=O)cc1 (stereo not given),4.8
26,C/C(=N/NC(=O)c1cc(-c2ccc3ccccc3c2)n[nH]1)c1ccc([N+](=O)[O-])cc1,-3.1
27,CCOC(=O)c1c(Nc2ccc(C)cc2)csc1C,-1.3

row,Structure (SMILES),displacement [%]
1,Nc1nnc(SCC(=O)Nc2cccc(C(F)(F)F)c2)s1,-11.2
2,CCOc1ccc(CN2CCN(C(=O)c3cccc(F)c3)CC2)cc1,1.7
3,C=CCn1c(SCC(=O)N2CCN(CCO)CC2)nc2sc(C)c(C)c2c1=O,2
4,COc1ccc(C(=O)Nc2ccccc2C(=O)Nc2nc3ccccc3n2C)cc1,11.9
5,COc1ccc(CC(=O)Nc2cccc(-c3nc4ncccc4o3)c2)cc1OC,0.2
6,N#C/C(=C\c1cccc(Cl)c1)c1nc2ccccc2[nH]1,-9.2
7,CN1CCN(c2nc3ccccn3c(=O)c2/C=C2\SC(=S)N(C)C2=O)CC1,-8.5
8,O=c1oc2cc(O)ccc2c2c1CCCC2,15
9,O=C(O)C12c3ccccc3C(C(=O)O)(c3ccccc31)c1ccccc12,-11
10,COc1ccc(N(CC(=O)O)S(=O)(=O)c2ccc(NC(C)=O)cc2)cc1,-4.6
11,O=C(c1nn2c(C(F)(F)F)cc(-c3cccs3)nc2c1Cl)N1CCOCC1,-7.7
12,CCOC(=O)c1c[nH]c2c(OCC)cccc2c1=O,5.8
13,Nc1cc(-c2ccccc2)nn1-c1ccccc1,4.8
14,CCOC(=O)c1cnn2c(C(F)(F)F)cc(-c3ccco3)nc12,11.4
15,Nc1ccc2nc(SCC(=O)Nc3cccc(C(F)(F)F)c3)sc2c1,-3.3
16,COc1cc(NC(=O)COc2cc(C)ccc2C(C)C)ccc1NC(=O)c1ccco1,3.1
17,O=C(NCc1cccnc1)c1cc2nc3c(c(C(F)(F)F)n2n1)CCc1ccccc1-3,11.2
18,CCC(=O)Nc1sc2c(c1C(=O)Nc1ccccc1Cl)CCC(C)C2 (stereo not given),-5.4
19,COc1ccccc1-c1nnc(N)s1,-1
20,CC1=NN(c2ccc(S(N)(=O)=O)cc2)C(=O)/C1=C\c1ccc(-c2cc([N+](=O)[O-])ccc2C)o1,-6.5
21,S=c1[nH]nc(-c2cccc(Br)c2)n1-c1ccccc1,-14.7
22,COc1ccc(CCNc2cc(N3CCN(C(=O)c4cc(Cl)c(OC)c(Cl)c4)CC3)ccc2[N+](=O)[O-])cc1OC,12.7
23,CCOC(=O)C1(C(=O)OCC)C(c2ccccc2)CC(O)N1C(C)=O (stereo not given),8.7
24,O=C(c1ccncc1)N1CCN(S(=O)(=O)c2ccccc2)CC1,-11
25,COc1cc(CNc2ccc3c(c2)CCC3)cc(OC)c1O,11
26,CCC1(C)Cc2c(sc3nc(SCC(=O)c4ccccc4)nc(N)c23)CO1 (stereo not given),-7.7
27,CCOC(=O)c1ccc2nc(NC(=O)CSCC(=O)OCC(=O)c3ccc(Br)cc3)sc2c1,23.2

row,Structure (SMILES),displacement [%]
1,COc1cc(NC(=O)c2ccc(F)cc2)cc([N+](=O)[O-])c1,10
2,O=C(OCCOc1ccccc1)c1sc2ccccc2c1Cl,12.1
3,COc1ccc(/C=N/N2CCN(Cc3ccc(Cl)cc3)CC2)cc1OCc1ccccc1,-3.8
4,Cc1cccc(N2CCN(C(=O)c3cc(-c4ccc(Cl)cc4)nc4ccccc34)CC2)c1C,-9.7
5,COC(=O)c1cc(OC)cc([N+](=O)[O-])c1,6.3
6,Cc1ccccc1NC(=O)CC1CCCCC1,-3.4
7,CCOC(=O)C(=CNc1cc(OC)c(Cl)cc1OC)C(=O)OCC,2.9
8,CCOC(=O)COc1ccccc1/C=C1/C(=O)NN(c2ccccc2)C1=O,20.2
9,CCOC(=O)c1c(CC(C)C)csc1N1C(=O)c2cccc([N+](=O)[O-])c2C1=O,-8.8
10,CN=C(Nc1cccc(F)c1)SC1CC(=O)N(c2ccccc2F)C1=O (stereo not given),-1.3
11,CCOc1ccc(N(CC(=O)Nc2cccc(Cl)c2)S(=O)(=O)c2ccc(SC)cc2)cc1,-1.1
12,COC(=O)C(C(=O)OC)C(C(C)C)C(C(=O)OC)C(=O)OC,13.4
13,Cc1cccc2c1nc1s/c(=C\c3ccc(-c4ccccc4F)o3)c(=O)n12,15.4
14,CC(C)(C)c1ccc(-c2cc(-c3ccccc3O)[nH]n2)cc1,0.3
15,CC(=O)c1cccc(NC(=O)CC2S/C(=N\N=C(/C)c3ccc(F)cc3)NC2=O)c1 (stereo not given),-1.8
16,COc1ccc(OC)c(C2/C(=C(\O)c3ccc([N+](=O)[O-])cc3)C(=O)C(=O)N2CCCCCC(=O)O)c1 (stereo not given),-4.5
17,Cc1cc(C)cc(N2C(=O)NC(=O)/C(=C\c3ccc(N(C)C)cc3)C2=O)c1,127
18,COC(=O)c1cnn2c1NC(c1ccccc1)CC2C(F)(F)F (stereo not given),6.5
19,NC(=O)c1cnn2c1NC(c1cccs1)CC2C(F)(F)F (stereo not given),3.9
20,Cc1cccc(C)c1N(Cc1ccccc1)C(=O)c1c(F)cccc1F,-14.4
21,Cn1c2c(c(=O)[nH]c1=O)C(c1ccc(OCc3ccccc3)cc1)C1=C(N2)c2ccccc2C1=O (stereo not given),11.9
22,Cc1ccc(CN2CCN(/N=C/c3cccc(F)c3)CC2)cc1,7.6
23,CC(C)c1cccc(C(C)C)c1NC(=O)CN1C(=O)c2ccccc2C1=O,11
24,Cc1c(C(=O)Nc2ccccc2-c2ccccc2)cccc1[N+](=O)[O-],14.8
